PubChem BioAssay AID1159614 (National Center for Advancing Translational Sciences (NCATS), 2016)
Screen size: about 45,000 compounds; about 65 (0.1%) were called active. Calls come from the whole dose curve; as a rule, active = well fitted activation curve with a large enough effect; inconclusive = small, poorly fitted or top-dose-only effect; inactive = no such curve, though single readings can be large or run the other way. The list shows a part of the results.

Target: Galactocerebrosidase (Homo sapiens) (UniProt P54803)
Sequence of UniProt P54803 (P54803 whole entry, looked up): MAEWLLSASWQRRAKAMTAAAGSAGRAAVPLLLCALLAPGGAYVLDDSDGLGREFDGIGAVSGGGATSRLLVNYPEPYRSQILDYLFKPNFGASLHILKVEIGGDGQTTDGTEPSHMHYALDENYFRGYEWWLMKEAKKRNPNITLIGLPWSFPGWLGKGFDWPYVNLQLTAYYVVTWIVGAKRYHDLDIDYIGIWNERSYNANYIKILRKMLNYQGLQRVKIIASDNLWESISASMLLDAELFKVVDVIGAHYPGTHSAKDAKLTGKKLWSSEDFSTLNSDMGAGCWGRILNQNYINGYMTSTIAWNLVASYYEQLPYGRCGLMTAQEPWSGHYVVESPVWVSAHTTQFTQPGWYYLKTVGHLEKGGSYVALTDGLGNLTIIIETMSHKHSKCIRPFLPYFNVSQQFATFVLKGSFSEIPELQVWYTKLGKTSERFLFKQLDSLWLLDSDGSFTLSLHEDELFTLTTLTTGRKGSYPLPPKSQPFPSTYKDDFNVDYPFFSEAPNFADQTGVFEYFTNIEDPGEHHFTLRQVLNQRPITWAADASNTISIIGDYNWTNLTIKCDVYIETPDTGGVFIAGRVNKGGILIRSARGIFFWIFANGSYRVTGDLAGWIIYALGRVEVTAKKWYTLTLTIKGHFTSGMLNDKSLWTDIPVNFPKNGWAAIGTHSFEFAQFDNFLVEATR
Experiment: A Novel Cell-Based Assay to Identify Small Molecules for B -Galactocerebrosidase; note: 0% is about no effect; nearly all actives have a fitted effect of over 65% in size
Settings: 145M-Twi-hGALC-G270D cells (Twitcher mouse brain line with human GALC G270D), HMU-beta-Gal fluorescence, 48 h; series mostly up to 57.5 µM; activation: at the top concentration
Outline: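 Fluorescence readout: HMU-β-gal cleavage by mutant GALC (0.1 mM final, citrate/phosphate pH 5.2 with 1 mg/mL taurocholate), stopped with carbonate/bicarbonate plus Triton X-100. Cells: murine Twitcher 145M-Twi expressing human G270D GALC; qHTS for activators.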

activation, inactive:
COc1ccc(CNC(=O)c2ccc3c(c2)nc2n3CCOC2)c(OC)c1 2.75%
Cc1cc(NC(=O)C2=C(O)c3ccccc3S(=O)(=O)N2C)no1 -12.2%
Cc1cc(C)cc(NC(=O)CN2C(=O)c3ccccc3Sc3ncccc32)c1 2.66%
CN1C(C(=O)Nc2ccc(F)cc2F)=CC(c2ccc3c(c2)OCO3)=NS1(=O)=O -11.4%
CCCCN(CC)CCCNC(=O)c1cc2c(=O)[nH]c3ccccc3c2s1 -17%
CCOc1cccc(C2c3c(-c4cc(C)ccc4O)n[nH]c3C(=O)N2Cc2ccco2)c1 (stereo not drawn) -18.1%
Cc1ccc(CNC(=O)c2cc3c(=O)n(Cc4cccnc4)ccc3nc2C)cc1 -7.69%
CCOC(=O)C1CCN(C(=O)c2ccc3c(=O)n4nc(Nc5cc(C)ccc5C)sc4nc3c2)CC1 -2.19%
CCOC(=O)C(C)NC(=O)c1c(C)oc2ncn(CC(C)C)c(=O)c12 (stereo not drawn) 1.67%
COc1ccc(OC)c(CCNC(=O)c2csc3c2CCCCC3)c1 -7.11%
Cc1ccc(-c2cc(C(F)(F)F)c(C#N)c(SCC(=O)Nc3ccccc3)n2)cc1 6.61%
Cc1cccc(C)c1OCc1nc2c3c(-c4ccccc4)c(-c4ccccc4)oc3ncn2n1 -14%
COc1cccc(NC(=O)C2CCN(c3nn4cc(-c5ccc(F)cc5)nc4s3)CC2)c1 -17%
Cc1ccc(NC(=O)Cn2c(=O)oc3cc(S(=O)(=O)NCc4ccccc4)ccc32)cc1 -43%
CCn1cc(C(=O)N2CCN(c3ccc(C(C)=O)cc3)CC2)c2cc(OC)c(OC)cc2c1=O 2.12%
CCC(=O)C1=C(c2cccc(OC)c2)N(C(=O)CC)n2c(nnc2C2CCCCC2)S1 -2.74%
Cc1csc2nc(COc3ccccc3NC(=O)c3ccc(C(C)(C)C)cc3)cc(=O)n12 3.28%
Cc1cccc(CNC(=O)CCCn2c(=O)c3cccn3c3ccc(F)cc32)c1 -8.93%
CCNC(=O)c1nn(-c2ccccc2C)nc1CO -12%
CC(=O)C1=C(c2ccc(C)c(C)c2)N(C(C)=O)n2c(nnc2-c2ccc(Cl)cc2)S1 -13.3%
Cc1cccc2c1-c1sc(C(=O)N(C)c3cccc(C(F)(F)F)c3)cc1CO2 -16.8%
Cc1c(C)c2c(c(C)c1OC(=O)c1cccnc1)CC[C@@](C)(CCC[C@H](C)CCC[C@H](C)CCCC(C)C)O2 -8.79%
Cc1c(NC(=O)c2nc3ccccc3nc2N2CCCCC2)cccc1[N+](=O)[O-] 3%
Cc1ccccc1OC(=O)CSc1nnc(-c2ccc(F)cc2)o1 -8.06%
O=C(Cn1c(=O)n(-c2ccccc2Cl)c(=O)c2sc3ccccc3c21)NC1CCCCC1 -11.6%
N#Cc1cccc(NC(=O)C2CCN(S(=O)(=O)c3ccc4[nH]c(=O)ccc4c3)CC2)c1 -8.24%
Cc1ccccc1-n1nc(CO)c(C(=O)NCc2cccs2)n1 5.4%
Cc1ccc(CN2CCN(CC(=O)Nc3ccc(C)c(C)c3)S2(=O)=O)cc1 14.8%
CN(C)CCCN1c2ccccc2CCc2ccc(Cl)cc21 -11.6%
CCOc1cc(CNC(=O)NC2COc3ccc(OC)cc3C2)cc(OCC)c1OCC (stereo not drawn) -5.13%
COC(=O)c1ccccc1NC(=O)Nc1nnc(N2CCC(C)CC2)s1 -5.71%
COc1ccc(N2CC(NC(=O)CCCc3ccccc3)CC2=O)cc1 (stereo not drawn) -5.96%
Cc1ccc(C(=O)Nc2ccc(-c3nc4ccccc4s3)cc2C)cc1C -4.67%
Clc1ccccc1CNc1ncnc2c1c(-c1ccccc1)cn2-c1ccccc1 -8.71%
Cc1cc(C)c(NC(=O)Nc2ccc3snnc3c2)c(C)c1 -1.83%
Cc1ccc(C)c(Cn2c3ccccc3c3cnn(CC(=O)NCc4ccccc4)c(=O)c32)c1 -17.7%
Cc1cccc2nc(-c3cccc(NS(=O)(=O)c4ccccc4)c3)cn12 -20%
Cc1ccc(C)c(CSc2nc3ccncc3n2CC(=O)Nc2ccc(N(C)C)cc2)c1 -14.6%
CCC(C)NC(=O)CSc1nc2c(sc3ccccc32)c(=O)n1Cc1ccccc1Cl (stereo not drawn) -20.1%
Cc1ccccc1OCc1nnc(SCc2cc(=O)c3cccc(F)c3[nH]2)n1C -10.8%
CC(=O)c1ccc(NC(=O)COCc2cc(-c3ccco3)on2)cc1 -11%
COc1cccc(N2CC(NC(=O)c3cccc(OC)c3OC)CC2=O)c1 (stereo not drawn) -1.34%
Fc1ccccc1Cn1c(-c2ccccc2)nc2ccccc21 -12.5%
COCCCNC(=O)CSc1nc2c(sc3ccccc32)c(=O)n1CCCC(=O)NCCOC -19.7%
Cc1ccc(-c2cc(C(=O)Oc3ccccc3)c3cc(C)ccc3n2)cc1 -6.76%
COc1ccc2c(c1)c1c(c(=O)n(-c3cccc(Cl)c3)c(=O)n1CC(=O)N1CCCC1)n2C -0.299%
CCOc1ccccc1NC(=O)Cn1ccn(Cc2ccc(C)cc2)c(=O)c1=O -11%
CCOC(=O)Cn1nc(C)c(NC(=O)COc2ccc(Cl)cc2C)c1C -29.8%
COc1ccc2nc(NC(=O)c3nc(S(=O)(=O)Cc4cccc(C)c4)ncc3Cl)sc2c1 -11.5%
Clc1ccccc1CN1CCc2sccc2C1 -10.2%
Cc1cc(NC(=O)C2CCN(S(=O)(=O)c3ccc4[nH]c(=O)oc4c3)CC2)ccc1Br -12.5%
CCC1CCCCN1CCCNC(=O)CN1C(=O)CSc2ccc(S(=O)(=O)N3CCOCC3)cc21 (stereo not drawn) -16%
CC(C)(C)C(=O)NCCc1csc2nc(-c3ccc(F)cc3)nn12 -9.59%
Cc1ccc(Cl)cc1N1CCN(CCNC(=O)Nc2ccccc2Cl)CC1 -9.64%
COc1cc(NC(=O)c2nc(-c3ccncc3)no2)cc(OC)c1OC -16.3%
COc1ccc(/C=C\C(=O)NC2CC(=O)N(c3ccccc3)C2)cc1OC (stereo not drawn) -14.2%
Cc1ccc(NC(=O)C(Cc2c[nH]c3ccccc23)NC(=O)OCC(C)C)cc1 (stereo not drawn) -13.6%
COC(=O)c1nc2n(n1)C(c1cc(OC)ccc1OC)C(C(=O)Nc1ccc(C)cc1C)=C(C)N2 (stereo not drawn) 3.17%
Cc1ccc(CN(C(=O)COc2c(C)cccc2C)C2CCS(=O)(=O)C2)o1 (stereo not drawn) -7.89%
Nc1ccc(O)c(C(=O)O)c1 -8.32%
Cc1ccc2oc3c(c(=O)c2c1)C1(C(=O)N(C)c2ccccc21)N(CCCO)C3=O (stereo not drawn) -8.16%
Cc1ccc(Cl)cc1NC(=O)C(=O)NCC(c1cccnc1)N1CCc2ccccc21 (stereo not drawn) -15.7%
O=C(CCS(=O)(=O)c1cccc2nsnc12)Nc1ccc(F)cc1 -4.75%
